For 153 variants, enrichment ratio results are on record in a collection of fitness landscapes (doi:10.1126/science.1257360).

The labels stand for the following.
B1: PhoQ; a variant is named by its letters at X, in order, P23837 (parent)
chain: MKKLLRLFFPLSLRVRFLLATAAVVLVLSLAYGMVALIGYSVSFDKTTFRLLRGESNLFYTLAKWENNKLHVELPENIDKQSPTMTLIYDENGQLLWAQRDVPWLMKMIQPDWLKSNGFHEIEADVNDTSLLLSGDHSIQQQLQEVREDDDDAEMTHSVAVNVYPATSRMPKLTIVVVDTIPVELKSSYMVWSWFIYVLSANLLLVIPLLWVAAWWSLRPIEALAKEVRELEEHNRELLNPATTRELTSLVRNLNRLLKSERERYDKYRTTLTDLTHSLKTPLXXLQXXLRSLRSEKMSVSDAEPVMLEQISRISQQIGYYLHRASMRGGTLLSRELHPVAPLLDNLTSALNKVYQRKGVNISLDISPEISFVGEQNDFVEVMGNVLDNACKYCLEFVEISARQTDEHLYIVVEDDGPGIPLSKREVIFDRGQRVDTLRPGQGVGLAVAREITEQYEGKIVAGESMLGGARMEVIFGRQHSAPKDE

The list shows a part of the results.

Variants of B1 are the subject of this assay. The experiment in a line: enrichment ratio after two sorts for PhoP signalling (ratio (wild type AVST 3.29)); higher = more functional. As to conditions: with PhoP (E. coli).
As for RGAC, the enrichment ratio is no more than 0.25. Next, HQFT: no more than 0.25. On to KRAR, for which the enrichment ratio is no more than 0.25. The value for PDMD was no more than 0.25; that for TMSC was 10.9. In the case of MPSM, the enrichment ratio is no more than 0.25. Consider NWLP, for which the enrichment ratio was no more than 0.25. The value for KLRK was no more than 0.25; that for IHRY was no more than 0.25; that for FEMA was no more than 0.25. The value for FVTK was no more than 0.25. For the variant WGWR, the enrichment ratio was no more than 0.25.

With IWRM, the enrichment ratio was no more than 0.25. Next, NAYV: no more than 0.25. Next, VCFN: no more than 0.25; LGAA: no more than 0.25; AAGG: no more than 0.25.

Regarding KQLE, the enrichment ratio was no more than 0.25. The value for SETR was 0.48.

On to KANM, for which the enrichment ratio was no more than 0.25.

For the variant FKKH, the enrichment ratio is no more than 0.25. On to FIGQ, for which the enrichment ratio is no more than 0.25. Next, KNLV: no more than 0.25; EYGH: no more than 0.25. Next, TRIL: 5.95; TCLH: 1.39; ELPR: no more than 0.25.

Consider PHLF, for which the enrichment ratio was no more than 0.25. Next, VLMN: no more than 0.25. Next, LNLV: no more than 0.25; NSDF: no more than 0.25; IRCW: no more than 0.25.

Regarding LIAS, the enrichment ratio is no more than 0.25. The value for HDQY was no more than 0.25. For the variant APQQ, the enrichment ratio was no more than 0.25. Next, YWNY: no more than 0.25; ICNS: no more than 0.25. WQQN: the enrichment ratio was no more than 0.25. The value for CIWI was no more than 0.25.

PKTT: the enrichment ratio is no more than 0.25. The value for YSVI was 4.17. Next, PSFS: no more than 0.25; WKDC: no more than 0.25; KFCT: no more than 0.25.

In the case of SSKL, the enrichment ratio was no more than 0.25. Next, SHNM: 3.62; YLNQ: no more than 0.25. Next, MVSY: no more than 0.25; PSGF: no more than 0.25; GIAV: 9.01.

Turning to LSEM, the enrichment ratio is no more than 0.25.

Consider WNLN, for which the enrichment ratio is no more than 0.25. Next, IFAC: no more than 0.25. Next, KMGE: no more than 0.25. Regarding FIHT, the enrichment ratio is no more than 0.25. In the case of QSSI, the enrichment ratio was found to be 4.18.

With QHTR, the enrichment ratio is no more than 0.25. The value for EEMF was no more than 0.25; that for IRCI was no more than 0.25; that for TTCK was 5.62. Turning to IREY, the enrichment ratio was no more than 0.25. Next, RTIC: no more than 0.25; QPMS: no more than 0.25; NWGD: no more than 0.25. For the variant WNAQ, the enrichment ratio was no more than 0.25. The value for ALPM was no more than 0.25. For EQFK, the enrichment ratio was no more than 0.25. The value for TKRV was no more than 0.25; that for SIFT was no more than 0.25.

GETH: the enrichment ratio was no more than 0.25. Next, FHTV: no more than 0.25; PFYY: no more than 0.25; RVYE: no more than 0.25.

For the variant WMVM, the enrichment ratio is no more than 0.25. For NKPG, the enrichment ratio is no more than 0.25. In the case of YFCP, the enrichment ratio was no more than 0.25. Next, EAPQ: no more than 0.25; MWID: no more than 0.25; LFDF: no more than 0.25. The value for ELGV was no more than 0.25; that for KKWC was no more than 0.25. As for DVPH, the enrichment ratio was no more than 0.25. AQLL: the enrichment ratio was 9.66. The value for SCKS was no more than 0.25. The value for TAWC was 11.3. Next, FSHP: no more than 0.25; INQY: no more than 0.25; VQYP: no more than 0.25. Take TVVM: the enrichment ratio is no more than 0.25. Next, QHQN: no more than 0.25; FRSA: no more than 0.25. The value for RWRV was no more than 0.25. Regarding QWHL, the enrichment ratio was no more than 0.25. Next, QWSN: no more than 0.25; TANF: 7.67; WMLW: no more than 0.25. For the variant QSEM, the enrichment ratio was no more than 0.25. The value for YEQS was no more than 0.25; that for TVVC was no more than 0.25. The value for PHKR was no more than 0.25. The value for IRND was no more than 0.25; that for LKPH was no more than 0.25. Take SRWY: the enrichment ratio was no more than 0.25. The value for QRIF was no more than 0.25; that for VFFA was no more than 0.25. The value for MARM was no more than 0.25; that for QIIA was no more than 0.25.

WDWY: the enrichment ratio was no more than 0.25.

Consider FRQH, for which the enrichment ratio is no more than 0.25. IFPG: the enrichment ratio is no more than 0.25. The value for LFFT was no more than 0.25. Next, ILKT: no more than 0.25; GMHK: no more than 0.25. The value for DQGD was no more than 0.25; that for MGHH was no more than 0.25; that for QSTK was no more than 0.25. As for HNYE, the enrichment ratio is no more than 0.25. As for ISCP, the enrichment ratio is no more than 0.25. Next, QISR: no more than 0.25. The value for HGNN was no more than 0.25; that for DDEY was no more than 0.25.

Turning to QTWS, the enrichment ratio was no more than 0.25. Next, HPTI: no more than 0.25; ANEC: no more than 0.25. Next, FQPY: no more than 0.25.

For RRNL, the enrichment ratio is no more than 0.25. Next, AVPQ: no more than 0.25; TPGR: no more than 0.25. The value for YRKA was no more than 0.25; that for DSTY was no more than 0.25.

On to DVCT, for which the enrichment ratio is no more than 0.25.

DENG: the enrichment ratio is no more than 0.25. The value for YGRS was 0.285; that for QAWP was no more than 0.25. The value for IQWW was no more than 0.25; that for DISQ was no more than 0.25. Next, GYWP: no more than 0.25. Take MKIH: the enrichment ratio is no more than 0.25. The value for GRNR was no more than 0.25; that for FTFG was no more than 0.25.

In the case of ADRA, the enrichment ratio was no more than 0.25. Turning to HVIL, the enrichment ratio was no more than 0.25. Consider QFRM, for which the enrichment ratio is no more than 0.25.

As to IGWK, the enrichment ratio was no more than 0.25. Next, LEGP: no more than 0.25; FPTA: no more than 0.25; EHYN: no more than 0.25. Consider PVIY, for which the enrichment ratio was no more than 0.25. Next, PRIN: no more than 0.25. Next, LCRN: no more than 0.25; EERP: no more than 0.25.

In the case of SNGE, the enrichment ratio amounted to 1.67. As for AFMG, the enrichment ratio was 19.5.
